{
  "source": "PubChem BioAssay AID588795",
  "about": "(National Center for Advancing Translational Sciences (NCATS), 2011)",
  "note": "Values joined by “and” are separate entries in the source; they are usually repeats but may differ in a detail not shown here. Equal values may be shown once. Screen size: about 390,000 compounds; about 1,400 (0.36%) were called active. The inconclusive results got no clear call from the source; some entries with a clear call stand among them for comparison. The call rests on the fitted dose curve; in most records, active means well fitted inhibition curve with a large enough effect; inconclusive means small, poorly fitted or top-dose-only effect; inactive means no such curve, though single readings can be large or run the other way. A potency beside an inconclusive call is a rough fit, not a confirmed value. Potency means the concentration at half of the fitted maximal effect; tags describe the fitted curve by direction and shape.",
  "data": [
    {"molecular_target": "Flap endonuclease 1 (Homo sapiens) (UniProt P39748)", "sequence (P39748 whole entry, looked up)": "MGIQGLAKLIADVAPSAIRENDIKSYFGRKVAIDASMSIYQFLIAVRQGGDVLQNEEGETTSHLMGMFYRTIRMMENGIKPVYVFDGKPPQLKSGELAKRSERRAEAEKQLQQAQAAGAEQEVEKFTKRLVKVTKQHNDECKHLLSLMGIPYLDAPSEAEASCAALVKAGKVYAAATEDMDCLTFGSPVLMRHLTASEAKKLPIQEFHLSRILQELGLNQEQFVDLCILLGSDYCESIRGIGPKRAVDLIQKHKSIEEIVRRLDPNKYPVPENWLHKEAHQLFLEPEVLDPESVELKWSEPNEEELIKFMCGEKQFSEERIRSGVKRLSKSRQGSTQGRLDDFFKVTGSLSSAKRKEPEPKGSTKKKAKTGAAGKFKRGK", "experiment": "qHTS Assay for the Inhibitors of Human Flap endonuclease 1 (FEN1); further: nearly all actives have a fitted effect of over 65% in size.", "settings": "Recombinant FEN1 flap cleavage, fluorescence, 15 min; series mostly up to 114 µM", "outline": "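Potency values derive from four-parameter Hill fits of normalized qHTS data. The reaction used 10 nM FEN1 preincubated 15 min at room temperature with compound, then 50 nM DNA substrate, read at 0 and 15 min.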", "values": [
      {"compound": "O=C(CSc1ccccc1)Nc1ccc(-c2nc3ccccc3[nH]2)cc1", "Potency": "inactive"},
      {"compound": "Cc1c(NC(=O)c2ccco2)cccc1-c1nc2cccnc2s1", "Potency": "inactive"},
      {"compound": "CC(C)(C)C(=O)NCCc1csc2nc(-c3ccc(F)cc3)nn12", "Potency": "inactive"},
      {"compound": "c1ccc(CN(Cc2ccco2)C(c2ccncc2)c2nnnn2C2CCCC2)cc1", "note": "(stereo not drawn)", "Potency": "inconclusive: 50.1 µM [inhibitor, partial curve]"},
      {"compound": "Cc1cccc(N=C2NC(=O)/C(=C/c3cccn3C)S2)c1C", "Potency": "inactive"},
      {"compound": "Cc1cc(C(C)(C)CC(C)(C)C)ccc1OCCOCC[N+](C)(C)Cc1ccccc1", "Potency": "inconclusive: 89.1 µM [inhibitor, partial curve, poor fit]"},
      {"compound": "COc1cc(OC)c(OC)cc1/C=N/NC(=O)c1ccc(=O)n(C)c1", "Potency": "inconclusive: 50.1 µM [inhibitor, partial curve, poor fit]"},
      {"compound": "O=C(N/N=C\\c1cccc(Br)c1)c1ccccc1-n1cccc1", "Potency": "inconclusive: 89.1 µM [inhibitor, single point]"},
      {"compound": "Cn1c(=O)n(CC(N)=O)c(=O)c2c1nc1n2CCCN1Cc1ccccc1", "Potency": "inconclusive: 89.1 µM [inhibitor, single point]"},
      {"compound": "CC(=O)O[C@H]1[C@@H](O)[C@H](O)[C@H](Oc2c(O)c(C)c3c4c2[C@@H](C)CC[C@@H]4[C@@H](C)C[C@H]3C=C(C)C)O[C@H]1C", "Potency": "inconclusive: 35.5 µM [inhibitor, partial curve, poor fit]"},
      {"compound": "COc1ccc2nc(NN=C(C)c3ccccn3)cc(C)c2c1", "Potency": "inconclusive: 44.7 µM [inhibitor, partial curve]"},
      {"compound": "COc1cccc(/C=C/c2cnc3ccccc3n2)c1OC", "Potency": "inactive"},
      {"compound": "O=C(O)CSc1cc(NS(=O)(=O)c2ccc(Br)cc2)c2ccccc2c1O", "Potency": "inconclusive: 3.16 µM [inhibitor, full curve, poor fit]"},
      {"compound": "CCCCCCCCCC[n+]1ccc(/C=C/c2c[nH]c3ccccc23)cc1", "Potency": "active: 89.1 µM"},
      {"compound": "COc1ccc(OCC(=O)NCc2ccc3c(c2)CCN3C(=O)c2ccc(F)cc2)cc1", "Potency": "inactive"},
      {"compound": "COc1ccc(/C=C2\\Oc3cc(OC(=O)N4CCOCC4)ccc3C2=O)cc1", "Potency": "inconclusive: 39.8 µM [inhibitor, partial curve, poor fit]"},
      {"compound": "CC(=O)Nc1ccc2nc(SCCOc3cc(C)cc(C)c3)sc2c1", "Potency": "inactive"},
      {"compound": "CC(=O)c1sc2nc(CSc3nnnn3-c3ccccc3)[nH]c(=O)c2c1C", "Potency": "active: 79.4 µM"},
      {"compound": "Cn1cnnc1SCC(=O)Nc1ccc(C#N)cc1", "Potency": "inactive"},
      {"compound": "O/N=C/c1cc(Br)ccc1OCc1ccccc1F", "Potency": "inconclusive: 50.1 µM [inhibitor, partial curve, poor fit]"},
      {"compound": "CCN(Cc1ccccc1)S(=O)(=O)c1cc(C(=O)Nc2cc(Cl)cc(Cl)c2)ccc1F", "Potency": "inactive"},
      {"compound": "O=C(O)C1Nc2ccc(Br)cc2C2C=CCC12", "note": "(stereo not drawn)", "Potency": "inconclusive: 15.8 µM [inhibitor, full curve, poor fit]"},
      {"compound": "CN1CCc2nc3sc(C(=O)C45CC6CC(CC(C6)C4)C5)c(N)c3cc2C1", "Potency": "inconclusive: 56.2 µM [inhibitor, partial curve]"},
      {"compound": "O=c1c(Cl)c(NCc2ccccc2Cl)cnn1C12CC3CC(CC(C3)C1)C2", "Potency": "inconclusive: 89.1 µM [inhibitor, partial curve, poor fit]"},
      {"compound": "CCOC(=O)c1c(NC(=O)c2ccc(Br)o2)sc(C)c1CC", "Potency": "inconclusive: 89.1 µM [inhibitor, partial curve, poor fit]"},
      {"compound": "CC(=O)NC(c1ccccc1)c1cc(Cl)c2cccnc2c1O", "note": "(stereo not drawn)", "Potency": "inconclusive: 11.2 µM [inhibitor, partial curve, poor fit]"},
      {"compound": "COc1ccc2nc3cccc(OC)c3nc2c1", "Potency": "inconclusive: 28.2 µM [inhibitor, partial curve]"},
      {"compound": "Cc1cc(Cl)c2oc(C(=O)N3CCC(O)(c4ccccc4)CC3)c(C)c2c1", "Potency": "inconclusive: 79.4 µM [inhibitor, single point]"},
      {"compound": "COC(=O)c1ccc(Oc2ccc(C(C)(C)C)cc2)c([N+](=O)[O-])c1", "Potency": "inactive"},
      {"compound": "CCOC(=O)c1c(NC(=O)CSc2nnc(-c3cccnc3)o2)sc(C(C)=O)c1C", "Potency": "inconclusive: 5.01 µM [inhibitor, partial curve, poor fit]"},
      {"compound": "O=C1C=CC(=O)N1Cc1ccccc1", "Potency": "inconclusive: 89.1 µM [inhibitor, single point]"},
      {"compound": "COc1cccc(-n2c(-c3cccc(F)c3)nc3c(cnn3-c3ccc(C)cc3)c2=O)c1", "Potency": "inactive"},
      {"compound": "CCN(CCCNC(=O)c1cc2c(Cl)nc3ccccc3c2s1)Cc1ccccc1", "Potency": "inconclusive: 17.8 µM [inhibitor, partial curve, poor fit]"},
      {"compound": "O=C(Nc1cccc(-c2cn3ccccc3n2)c1)c1cc2ccccc2oc1=O", "Potency": "inconclusive: 56.2 µM [inhibitor, partial curve, poor fit]"},
      {"compound": "CCOC(=O)/C=C/c1ccc2c(c1)S(=O)(=O)N(C1CCCC1)[C@H]2CC(=O)OCC", "Potency": "inconclusive: 25.1 µM [inhibitor, partial curve, poor fit]"},
      {"compound": "N#CC(C#N)=C1C=C2C=C(N3CCCCC3)CCC2CC1", "note": "(stereo not drawn)", "Potency": "inconclusive: 28.2 µM [inhibitor, partial curve, poor fit]"},
      {"compound": "CC(C)(C)NC(=O)C(c1ccncc1)N(Cc1ccc(F)cc1)C(=O)c1ccc(-c2ccccc2)[nH]1", "note": "(stereo not drawn)", "Potency": "inconclusive: 79.4 µM [inhibitor, partial curve, poor fit]"},
      {"compound": "O=C(CSc1nc(=O)n2cc(Cl)ccc2n1)Nc1ccc2c(c1)OCO2", "Potency": "inconclusive: 89.1 µM [inhibitor, partial curve, poor fit]"},
      {"compound": "COc1cccc(/C=N/NC(=O)c2cc3c(OC)cccc3[nH]2)c1OC", "Potency": "inconclusive: 39.8 µM [inhibitor, partial curve, poor fit]"},
      {"compound": "O=C1c2cccc3cccc(c23)C(=O)N1OS(=O)(=O)c1ccc(Cl)cc1", "Potency": "inconclusive: 31.6 µM [inhibitor, partial curve]"},
      {"compound": "CCN(CC)CCCN1C=C2C(=O)C(C)(OC(=O)C3CCCC3)C(=O)C=C2C=C1c1ccsc1", "note": "(stereo not drawn)", "Potency": "inconclusive: 28.2 µM [inhibitor, partial curve, poor fit]"},
      {"compound": "CCOC(CNCc1cc(C)c2[nH]c3ccccc3c2c1C)OCC", "Potency": "inconclusive: 44.7 µM [inhibitor, partial curve, poor fit]"},
      {"compound": "Cn1c(-c2c(N)n(CCCc3ccccc3)c3nc4ccccc4nc23)nc2ccccc21", "Potency": "inconclusive: 50.1 µM [inhibitor, partial curve, poor fit]"},
      {"compound": "CCN(Cc1ccccc1)C(c1ccccn1)c1nnnn1C1CCCCC1", "note": "(stereo not drawn)", "Potency": "inconclusive: 70.8 µM [inhibitor, partial curve, poor fit]"},
      {"compound": "Cn1c2ccccc2c(=O)c2ccc(NCCc3cccs3)cc21", "Potency": "inconclusive: 50.1 µM [inhibitor, partial curve]"},
      {"compound": "Cc1ccc(NC(=O)CN2C(=O)C(c3ccc(F)cc3)=NC23CCCCCC3)c(C)c1", "Potency": "active: 89.1 µM"},
      {"compound": "COc1ccc(Cn2c(SCc3ccc(C(=O)NCc4ccc(C)cc4)cc3)nc3cccnc32)cc1", "Potency": "inconclusive: 89.1 µM [inhibitor, single point]"},
      {"compound": "O=C(O)Cn1c(O)c(C2=c3ccccc3=NC2=O)sc1=O", "Potency": "inconclusive: 89.1 µM [inhibitor, single point]"},
      {"compound": "COc1cc(NC(=O)Cn2nc(-c3ccc(F)cc3)ccc2=O)ccc1-n1cnnn1", "Potency": "inconclusive: 28.2 µM [inhibitor, single point]"},
      {"compound": "c1ccc(CC2CCN(C3=Nc4cccc5cccc3c45)CC2)cc1", "Potency": "inconclusive: 31.6 µM [inhibitor, partial curve, poor fit]"},
      {"compound": "COc1cc(CNc2ccc(O)cc2)cc(Br)c1OCc1ccccc1", "Potency": "inconclusive: 20 µM [inhibitor, partial curve, poor fit]"},
      {"compound": "COc1ccc(-c2nn(C)c3sc(C(=O)NCCN(C)C)cc23)cc1OC", "Potency": "active: 11.2 µM and active: 17.8 µM"},
      {"compound": "COc1ccc(Nc2ncnc3c2cnn3Cc2ccccc2)cc1", "Potency": "inconclusive: 89.1 µM [inhibitor, partial curve, poor fit]"},
      {"compound": "Cc1cccc(OCCn2cc(/C=N/NC(=O)c3ccncc3)c3ccccc32)c1", "Potency": "inconclusive: 35.5 µM [inhibitor, partial curve, poor fit]"},
      {"compound": "COc1ccc(CNC(=O)c2cc(-c3ccc(Br)s3)nc3ccccc23)c(OC)c1", "Potency": "inconclusive: 89.1 µM [inhibitor, single point]"},
      {"compound": "COc1ccccc1-c1cn[nH]c1-c1ccc(OCc2ccccc2F)cc1O", "Potency": "inconclusive: 79.4 µM [inhibitor, partial curve, poor fit]"},
      {"compound": "N#CC(C#N)=Cc1cccn1-c1ccc(C(=O)O)cc1", "Potency": "inactive"},
      {"compound": "COc1ccc(C2c3c(ncn(Cc4ccco4)c3=N)Oc3ccc4ccccc4c32)cc1", "note": "(stereo not drawn)", "Potency": "inconclusive: 56.2 µM [inhibitor, partial curve, poor fit]"},
      {"compound": "COc1cc2c(CCNC(C)=O)c[nH]c2cc1O", "Potency": "inconclusive: 8.44 µM [inhibitor, single point]"},
      {"compound": "COc1ccc(N(CC(=O)Nc2cc(OC)cc(OC)c2)S(=O)(=O)c2c(C)noc2C)cc1", "Potency": "inactive"},
      {"compound": "CCCCOC(=O)Nc1ccc(C(=O)OCCC)cc1", "Potency": "inconclusive: 89.1 µM [inhibitor, partial curve, poor fit]"},
      {"compound": "Cc1ccc2[nH]c(=O)c3cc(C(=O)N(CCCOC(C)C)Cc4ccco4)sc3c2c1", "Potency": "inconclusive: 17.8 µM [inhibitor, partial curve, poor fit]"},
      {"compound": "Cc1cc(NC(=O)COC(=O)C2CSC3(C)CCC(=O)N23)ccc1Br", "note": "(stereo not drawn)", "Potency": "inconclusive: 28.2 µM [inhibitor, partial curve, poor fit]"}
    ]}
  ]
}
